Measured values as given in PubChem BioAssay AID1645887 (National Center for Advancing Translational Sciences (NCATS), 2021).
Several values for one entry are separate records, joined by “and”; a condition that tells them apart may be missing. Identical values can stand only once. Among all 16,000 compounds or so, about 40 (0.2%) were called active. Roughly 1% stayed inconclusive and do not appear here. Calls come from the whole dose curve; as a rule, active = well fitted activation curve with a large enough effect; inconclusive = small, poorly fitted or top-dose-only effect, or another doubt; inactive = no such curve, though single readings can be large or run the other way. Some of the results follow.

biological target: Rap guanine nucleotide exchange factor 4 (Homo sapiens) (UniProt Q8WZA2); assay: Validation qHTS for agonist of cAMP-regulated guanine nucleotide exchange factor 4 (EPAC2); conditions: EPAC2 Rap1B BODIPY-GDP exchange, fluorescence; activation: stronger effect = higher value;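 note: exchange makes BODIPY-GDP fluorescence drop when released from Rap1B; series mostly up to about 150 µM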
How it was run: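 Signal normalized against 6.5 mM cAMP as agonist control. Mix of EPAC2 (100 nM), RAP1B-BODIPY-GDP (250 nM) and GDP (50 uM) was read kinetically at 480/540 nm, every 5 min over 30 min, after 5 min room-temperature incubation with compound.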
% is set by controls: 0 for no effect and ±100 for the full control effect.

UniProt Q8WZA2, sequence (Q8WZA2 whole entry, looked up): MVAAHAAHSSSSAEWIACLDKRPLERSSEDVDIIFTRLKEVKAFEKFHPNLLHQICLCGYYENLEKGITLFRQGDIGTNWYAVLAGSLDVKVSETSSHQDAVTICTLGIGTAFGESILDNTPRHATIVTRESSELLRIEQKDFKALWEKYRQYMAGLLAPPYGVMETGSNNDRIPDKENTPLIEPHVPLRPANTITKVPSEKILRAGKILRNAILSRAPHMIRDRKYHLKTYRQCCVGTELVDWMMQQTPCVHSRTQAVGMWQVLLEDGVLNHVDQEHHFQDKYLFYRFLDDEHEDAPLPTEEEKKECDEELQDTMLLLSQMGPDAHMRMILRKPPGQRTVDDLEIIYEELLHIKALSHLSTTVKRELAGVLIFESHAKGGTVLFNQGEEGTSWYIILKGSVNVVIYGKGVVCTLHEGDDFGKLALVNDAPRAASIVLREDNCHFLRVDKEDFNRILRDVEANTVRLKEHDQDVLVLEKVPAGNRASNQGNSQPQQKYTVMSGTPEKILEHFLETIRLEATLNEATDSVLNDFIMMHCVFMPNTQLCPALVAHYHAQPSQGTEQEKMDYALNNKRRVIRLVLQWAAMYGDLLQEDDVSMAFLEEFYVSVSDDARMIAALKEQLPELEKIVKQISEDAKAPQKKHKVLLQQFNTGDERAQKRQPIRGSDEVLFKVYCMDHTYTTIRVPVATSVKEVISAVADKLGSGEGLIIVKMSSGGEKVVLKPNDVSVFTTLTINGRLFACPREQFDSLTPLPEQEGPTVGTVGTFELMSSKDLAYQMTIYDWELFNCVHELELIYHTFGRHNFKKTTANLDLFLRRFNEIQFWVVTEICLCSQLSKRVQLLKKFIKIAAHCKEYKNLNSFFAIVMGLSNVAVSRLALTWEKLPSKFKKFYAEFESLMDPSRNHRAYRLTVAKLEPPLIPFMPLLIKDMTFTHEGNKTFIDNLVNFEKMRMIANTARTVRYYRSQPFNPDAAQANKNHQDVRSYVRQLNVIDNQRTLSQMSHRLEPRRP

activation, inactive:
COc1cc2c(cc1OC)[C@@H]1CC(=O)[C@@H](CC(C)C)CN1CC2 -0.646%
Cc1ccccc1-c1cc(-n2ccnc2)ncn1 -6.44%
COc1ccc(NC(=O)N2CCC3(CC2)CCN(C(=O)c2csnn2)CC3)cc1 -10.4%
CS(=O)(=O)N1CCC2(CCCN(c3ncccn3)C2)CC1 -2.88%
Cc1cccc(C)c1NC(=O)c1ccccc1C(=O)O -34.8%
CCNC(=O)[C@H]1O[C@@H](n2cnc3c(N)nc(NCCc4ccc(CCC(=O)O)cc4)nc32)[C@H](O)[C@@H]1O 10.7%
c1ccc2c(Nc3ccncc3)nc(-c3ccoc3)nc2c1 -12.4%
CNCCNS(=O)(=O)c1cccc2cnccc12 -2.86% and -28.3%
O=C(O)Cn1c(C(=O)Nc2nc(-c3ccccc3Cl)cs2)cc2ccccc21 -30.8%
CC1CC[C@@]23CCC4(C)[C@@]5(C)CCC6C(C)(C)C(=O)CC[C@@]6(C)C5C=C[C@@]4(OC2=O)C3C1C (stereo partly specified) -11.7%
COc1cc(-c2c(OC)cccc2OC)cc2c1OCCN(Cc1cn[nH]c1-c1ccc(Cl)cc1)C2 -5.17%
COc1c2c(cc3c1C(CC(=O)c1c(O)c(OC)c4occc4c1OC)[N+](C)(C)CC3)OCO2 (stereo unspecified) -28%
Cc1ccc2cc(CN(C(=O)c3ccc4c(c3)OCO4)C3CC3)c(N(C)C)nc2c1 0.168%
N#CC[C@H](Cc1ccccc1)N1CCN(CCc2ccccc2)CCC1=O -21.6%
O=C1CC(c2ccccc2)Oc2ccccc21 (stereo unspecified) -1.79%
C[C@@H]1NS(=O)(=O)[C@H]2C[C@@H]3C=C[C@]2(O3)[C@H]1OC(=O)Nc1ccc(C(F)(F)F)cc1[N+](=O)[O-] -15%
FCOC(C(F)(F)F)C(F)(F)F -0.579%
CS(=O)(=O)Nc1cccc(-c2nc(NCCN3CCOCC3)c3ccccc3n2)c1 -4.83%
CS(=O)(=O)c1ccc([C@@H](O)[C@@H](CF)NC(=O)C(Cl)Cl)cc1 -17.2%
CCN(CC)CCCC(C)Nc1ccnc2cc(Cl)ccc12 (stereo unspecified) -8.87% and 0.526% and -22.7%
CCCN1CCC(=O)N(CCN=[N+]=[N-])CC1 -6.79%
CCc1nc2cc(C(=O)N(C)C3CCOC3)cc(NC(=O)c3ccccc3OC)c2n1C (stereo unspecified) -5.16%
O=C(c1cc(C(F)(F)F)cc(C(F)(F)F)c1)N1CCC2(CCN(Cc3ccncc3)CC2)CC1 -16.4%
CCOC(=O)C(C#N)=C(c1ccccc1)c1ccccc1 6.2%
CS(=O)(=O)Nc1cc2occ(NC=O)c(=O)c2cc1Oc1ccccc1 -0.0333%
N[C@@H](CC(=O)O)C(=O)O -1.78% and 3.34% and -3.41%
O=C(O)c1cc(-c2ccc(-c3c(-c4ccc5c(c4)OCO5)noc3-c3ccsc3)cc2)nc2ccccc12 -10%
CNc1ncnc2c1ncn2[C@@H]1O[C@H](CO)[C@@H](O)[C@H]1O 8.03% and -19.1%
CC(C)OC(=O)C(C(=O)OC(C)C)=C1SC=CS1 -25.5%
CC(C)C[C@H](NC(=O)[C@@H](Cc1c[nH]c2ccccc12)NC(=O)[C@H](Cc1ccc(O)cc1)NC(=O)[C@H](CO)NC(=O)[C@H](Cc1c[nH]c2ccccc12)NC(=O)[C@H](Cc1cnc[nH]1)NC(=O)[C@@H]1CCC(=O)N1)C(=O)N[C@@H](CCCN=C(N)N)C(=O)N1CCC[C@@H]1C(=O)NCC(N)=O -38.6%
CSCC[C@@H](N)C(=O)O -1.69%
N#Cc1cccc(NC(=O)N2CC3(CCN(C(=O)c4cccc(F)c4)CC3)C2)c1 -11%
O=C(c1ccc(F)cc1)C1CCN(CCCCc2ccccc2)CC1 -5.1%
CC(NC(=O)c1ccco1)c1nnc2n1CCN(Cc1cccc(Cl)c1)CC2 (stereo unspecified) -9.35%
c1ccc2c(c1)CCCC2C1=NCCN1 (stereo unspecified) 14.5% and 22.8% and -6.65%
COc1cccc(CCc2ccccc2OCC(CN(C)C)OC(=O)CCC(=O)O)c1 (stereo unspecified) -17.7%
CCCCN1C[C@H](O)[C@@H](O)[C@H](O)[C@H]1CO -0.678%
CCn1c(-c2ccccc2F)nc2cc(C(=O)NCc3ccc(C)o3)cc(NC(C)=O)c21 1.44%
C[C@@H]1C(=O)O[C@H]2[C@@H](O)[C@@]34[C@H]5CC(C(C)(C)C)[C@]36[C@@H](OC(=O)[C@@H]6O)O[C@@]4(C(=O)O5)[C@@]12O (stereo partly specified) -5.58%
O=C(c1ccc2[nH]ccc2c1)N1CCOc2ccc(CN3CCN(c4ccccn4)CC3)cc2C1 -16.3%
CN1CCN(c2ncc3nc(CCc4ccccc4)c(=O)n(Cc4cccs4)c3n2)CC1 14.9%
COc1ccc(Oc2ncc3nc(-c4cccc(C#N)c4)c(=O)n(CCC#N)c3n2)cc1 -20.5%
O=c1ccc2cc3ccoc3cc2o1 3.94%
COc1ccc(-c2nc3cnc(Oc4ccccc4)nc3n(CCC#N)c2=O)cc1 4.24%
CN(C)Cc1ccccc1-c1nc(N(C)C)c2ccccc2n1 -6.73%
CN=c1nc(-c2ccccc2)n(-c2ccccc2)s1 -20.2%
COc1ncc2nc(-c3ccc(Cl)cc3)c(=O)n(-c3ccccc3)c2n1 -15.3%
O=C(N[C@H]1CCC(=O)N([C@H](CSc2ccccc2)Cc2ccccc2)CC1)OCc1ccccc1 -6.72%
CC(=O)N1CCC[C@@]2(CCN(C(=O)Nc3ccccc3)C2)C1 -3.87%
CC(=O)NCCNc1ncncc1-c1ccccc1CN(C)C -3.76%
CCC1CN(CCNC(=O)C2CCCCN2C)Cc2cc(OC)ccc2O1 (stereo unspecified) -7.43%
